Assay [1] concerns the target T1, recombinant human HIS-tagged CFP (human, UniProt P27918 28-469).
T1 sequence: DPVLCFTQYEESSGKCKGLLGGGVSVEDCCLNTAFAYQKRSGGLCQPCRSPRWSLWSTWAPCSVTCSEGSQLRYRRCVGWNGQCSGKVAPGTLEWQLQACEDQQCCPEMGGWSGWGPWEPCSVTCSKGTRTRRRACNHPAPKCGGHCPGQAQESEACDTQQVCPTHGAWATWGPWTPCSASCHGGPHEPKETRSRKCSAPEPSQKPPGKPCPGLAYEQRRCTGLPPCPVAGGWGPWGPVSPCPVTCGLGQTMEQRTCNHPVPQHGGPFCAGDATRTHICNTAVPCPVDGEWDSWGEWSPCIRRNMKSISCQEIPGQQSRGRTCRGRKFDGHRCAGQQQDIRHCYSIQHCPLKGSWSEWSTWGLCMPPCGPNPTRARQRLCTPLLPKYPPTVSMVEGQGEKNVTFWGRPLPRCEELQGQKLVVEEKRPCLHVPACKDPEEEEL
The experiment in a line: SPR. (Surface plasmon resonance follows binding to a sensor surface in real time, without labels.)

Assay [2] deals with T2, CFP purified from human serum (human, UniProt P27918 28-469).
T2 sequence: T1 sequence
The experiment in a line: SPR.

B1: human NKp46-Fc (Fc fusion)
chain: QQQTLPKPFIWAEPHFMVPKEKQVTICCQGNYGAVEYQLHFEGSLFAVDRPKPPERINKVQFYIPDMNSRMAGQYSCIYRVGELWSEPSNLLDLVVTEMYDTPTLSVHPGPEVISGEKVTFYCRLDTATSMFLLLKEGRSSHVQRGYGKVQAEFPLGPVTTAHRGTYRCFGSYNNHAWSFPSEPVKLLVTGDIENTSLAPEDPTFPADTWGTYLLTTETGLQKDHALWDHTAQN
For the molecule B1, the binding result in assay [1] and in assay [2] was “binds” throughout.

The values are drawn from publication PMC5419422 (Science immunology, 2017).
